Data on 31 molecules can be found in PMC9911399, “Two distinct binding modes provide the RNA-binding protein RbFox with extraordinary sequence specificity”.

B1: CUACCCA (DNA:RNA)
RNA: GGGAGACCGGAAUUCAGAUUGUCCCUACCCAUUAAAUCCCGUCGUAGCCACCA
DNA 1: CAATCTGAATTCCGGTCTCCC
DNA 2: TGGTGGCTACGACGGGATT
B2: CCGUCCA (DNA:RNA)
RNA: B1 RNA with U26C, A27G, C28U
DNA 1: CAATCTGAATTCCGGTCTCCC
DNA 2: TGGTGGCTACGACGGGATT
B3: CGUGCAU (DNA:RNA)
RNA: B1 RNA with U26G, A27U, C28G, C30A, A31U
DNA 1: CAATCTGAATTCCGGTCTCCC
DNA 2: TGGTGGCTACGACGGGATT
B4: GUGACAA (DNA:RNA)
RNA: B1 RNA with C25G, A27G, C28A, C30A
DNA 1: CAATCTGAATTCCGGTCTCCC
DNA 2: TGGTGGCTACGACGGGATT
B5: ACCUCAC (DNA:RNA)
RNA: B1 RNA with C25A, U26C, A27C, C28U, C30A, A31C
DNA 1: CAATCTGAATTCCGGTCTCCC
DNA 2: TGGTGGCTACGACGGGATT
B6: GAUCCUC (DNA:RNA)
RNA: B1 RNA with C25G, U26A, A27U, C30U, A31C
DNA 1: CAATCTGAATTCCGGTCTCCC
DNA 2: TGGTGGCTACGACGGGATT
B7: AAUUAUG (DNA:RNA)
RNA: GGGAGACCGGAAUUCAGAUUGUCCAAUUAUGUUAAAUCCCGUCGUAGCCACCA
DNA 1: CAATCTGAATTCCGGTCTCCC
DNA 2: TGGTGGCTACGACGGGATT
B8: CAAGUUC (DNA:RNA)
RNA: B7 RNA with A25C, U27A, U28G, A29U, G31C
DNA 1: CAATCTGAATTCCGGTCTCCC
DNA 2: TGGTGGCTACGACGGGATT
B9: GCAAGUC (DNA:RNA)
RNA: B7 RNA with A25G, A26C, U27A, U28A, A29G, G31C
DNA 1: CAATCTGAATTCCGGTCTCCC
DNA 2: TGGTGGCTACGACGGGATT
B10: AUACACC (DNA:RNA)
RNA: B1 RNA with C25A, C29A, A31C
DNA 1: CAATCTGAATTCCGGTCTCCC
DNA 2: TGGTGGCTACGACGGGATT
B11: AGCGAUG (DNA:RNA)
RNA: B7 RNA with A26G, U27C, U28G
DNA 1: CAATCTGAATTCCGGTCTCCC
DNA 2: TGGTGGCTACGACGGGATT
B12: AUGCAAG (DNA:RNA)
RNA: B7 RNA with A26U, U27G, U28C, U30A
DNA 1: CAATCTGAATTCCGGTCTCCC
DNA 2: TGGTGGCTACGACGGGATT
B13: AGGAACA (DNA:RNA)
RNA: B7 RNA with A26G, U27G, U28A, U30C, G31A
DNA 1: CAATCTGAATTCCGGTCTCCC
DNA 2: TGGTGGCTACGACGGGATT
B14: GGGUGGA (DNA:RNA)
RNA: B7 RNA with A25G, A26G, U27G, A29G, U30G, G31A
DNA 1: CAATCTGAATTCCGGTCTCCC
DNA 2: TGGTGGCTACGACGGGATT
B15: UUCAGUG (DNA:RNA)
RNA: B7 RNA with A25U, A26U, U27C, U28A, A29G
DNA 1: CAATCTGAATTCCGGTCTCCC
DNA 2: TGGTGGCTACGACGGGATT
B16: GAAACUA (DNA:RNA)
RNA: B1 RNA with C25G, U26A, C28A, C30U
DNA 1: CAATCTGAATTCCGGTCTCCC
DNA 2: TGGTGGCTACGACGGGATT
B17: CUUAUGA (DNA:RNA)
RNA: B1 RNA with A27U, C28A, C29U, C30G
DNA 1: CAATCTGAATTCCGGTCTCCC
DNA 2: TGGTGGCTACGACGGGATT
B18: CGAGCAA (DNA:RNA)
RNA: B1 RNA with U26G, C28G, C30A
DNA 1: CAATCTGAATTCCGGTCTCCC
DNA 2: TGGTGGCTACGACGGGATT
B19: CAGGAUC (DNA:RNA)
RNA: B7 RNA with A25C, U27G, U28G, G31C
DNA 1: CAATCTGAATTCCGGTCTCCC
DNA 2: TGGTGGCTACGACGGGATT
B20: GUUAUCC (DNA:RNA)
RNA: B1 RNA with C25G, A27U, C28A, C29U, A31C
DNA 1: CAATCTGAATTCCGGTCTCCC
DNA 2: TGGTGGCTACGACGGGATT
B21: CUCCGAG (DNA:RNA)
RNA: B1 RNA with A27C, C29G, C30A, A31G
DNA 1: CAATCTGAATTCCGGTCTCCC
DNA 2: TGGTGGCTACGACGGGATT
B22: GGGAUAA (DNA:RNA)
RNA: B1 RNA with C25G, U26G, A27G, C28A, C29U, C30A
DNA 1: CAATCTGAATTCCGGTCTCCC
DNA 2: TGGTGGCTACGACGGGATT
B23: ACAAAAA (DNA:RNA)
RNA: B7 RNA with A26C, U27A, U28A, U30A, G31A
DNA 1: CAATCTGAATTCCGGTCTCCC
DNA 2: TGGTGGCTACGACGGGATT
B24: GACACAA (DNA:RNA)
RNA: B1 RNA with C25G, U26A, A27C, C28A, C30A
DNA 1: CAATCTGAATTCCGGTCTCCC
DNA 2: TGGTGGCTACGACGGGATT
B25: ACAGCGA (DNA:RNA)
RNA: B1 RNA with C25A, U26C, C28G, C30G
DNA 1: CAATCTGAATTCCGGTCTCCC
DNA 2: TGGTGGCTACGACGGGATT
B26: CGUUGUA (DNA:RNA)
RNA: B7 RNA with A25C, A26G, A29G, G31A
DNA 1: CAATCTGAATTCCGGTCTCCC
DNA 2: TGGTGGCTACGACGGGATT
B27: UAACGCC (DNA:RNA)
RNA: B1 RNA with C25U, U26A, C29G, A31C
DNA 1: CAATCTGAATTCCGGTCTCCC
DNA 2: TGGTGGCTACGACGGGATT
B28: AUUCGAA (DNA:RNA)
RNA: B1 RNA with C25A, A27U, C29G, C30A
DNA 1: CAATCTGAATTCCGGTCTCCC
DNA 2: TGGTGGCTACGACGGGATT
B29: GUGAGAG (DNA:RNA)
RNA: B7 RNA with A25G, A26U, U27G, U28A, A29G, U30A
DNA 1: CAATCTGAATTCCGGTCTCCC
DNA 2: TGGTGGCTACGACGGGATT
B30: CACCAUG (DNA:RNA)
RNA: B7 RNA with A25C, U27C, U28C
DNA 1: CAATCTGAATTCCGGTCTCCC
DNA 2: TGGTGGCTACGACGGGATT
B31: UCAGUCU (DNA:RNA)
RNA: B1 RNA with C25U, U26C, C28G, C29U, A31U
DNA 1: CAATCTGAATTCCGGTCTCCC
DNA 2: TGGTGGCTACGACGGGATT

Where a chain is given by its changes, count along the chain named. Some of the results follow.

The experiment concerns the target T1, RBFOX1 RRM (Homo sapiens, UniProt Q9NWB1 109-208).
T1 sequence: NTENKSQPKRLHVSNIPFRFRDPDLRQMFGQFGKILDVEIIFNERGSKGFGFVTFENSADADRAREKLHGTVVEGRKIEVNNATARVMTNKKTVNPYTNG
Description: EMSA; HiTS-Eq, 1 nM pool, 10 min; buffer printed only for the single-RNA assays: 10 mM Tris pH 7.5, 150 mM NaCl, 3.4 mM EDTA, 0.001% NP-40, 30 C. To be noted: tags: His6 N-terminal (pET28a); label: 5' 32P. A digest of the protocol:
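Relative association constants, normalised to the cognate motif, were derived by comparing read counts of each RNA species with those of the control reaction. The RNA sequenced was the free fraction, separated by 8% native PAGE after a 10 min equilibration in 50 µL of 1 nM 5′-radiolabelled RNA (7 randomized nucleotides) with increasing concentrations of purified wild-type or mutant RbFox RRM.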
On the technique in general: A gel shift assay detects complexes by their altered migration in electrophoresis.
As to B1, the binding signal was 0.00346 KA relative to UGCAUGU.

With B2, the binding signal was 0.00507 KA relative to UGCAUGU. Next, B3: 0.0166 KA relative to UGCAUGU; B4: 0.0111 KA relative to UGCAUGU; B5: 0.00387 KA relative to UGCAUGU.

With B6, the binding signal is 0.0113 KA relative to UGCAUGU. With B7, the binding signal was 0.00591 KA relative to UGCAUGU. Regarding B8, the binding signal was 0.00523 KA relative to UGCAUGU. The value for B9 was 0.0118 KA relative to UGCAUGU; that for B10 was 0.00041 KA relative to UGCAUGU; that for B11 was 0.0124 KA relative to UGCAUGU. The value for B12 was 0.0139 KA relative to UGCAUGU; that for B13 was 0.00792 KA relative to UGCAUGU; that for B14 was 0.0176 KA relative to UGCAUGU. B15: the binding signal is 0.0164 KA relative to UGCAUGU. With B16, the binding signal was 0.00411 KA relative to UGCAUGU.

As to B17, the binding signal was 0.0108 KA relative to UGCAUGU.

As to B18, the binding signal was 0.00594 KA relative to UGCAUGU. As for B19, the binding signal was 0.0113 KA relative to UGCAUGU. The value for B20 was 0.0109 KA relative to UGCAUGU; that for B21 was 0.009 KA relative to UGCAUGU. Regarding B22, the binding signal was 0.0268 KA relative to UGCAUGU. For B23, the binding signal was 0.000316 KA relative to UGCAUGU. Next, B24: 0.00153 KA relative to UGCAUGU; B25: 0.00555 KA relative to UGCAUGU. For B26, the binding signal was 0.00783 KA relative to UGCAUGU. Next, B27: 0.00751 KA relative to UGCAUGU.

Turning to B28, the binding signal was 0.00783 KA relative to UGCAUGU. Next, B29: 0.0165 KA relative to UGCAUGU; B30: 0.00289 KA relative to UGCAUGU.

Turning to B31, the binding signal is 0.00895 KA relative to UGCAUGU.
